Data taken from PubChem BioAssay AID596 (National Center for Advancing Translational Sciences (NCATS), 2007).
Out of some 71,000 compounds screened, about 1,400 (2%) were called active. The shares of active, inactive and inconclusive entries below differ from those in the screen. Calls come from the whole dose curve; as a rule, active = well fitted curve in the direction sought with a large enough effect; inconclusive = small, poorly fitted or top-dose-only effect; inactive = no such curve, though single readings can be large or run the other way. Where the call is inconclusive, the potency comes from a doubtful curve fit.

molecular target: Microtubule-associated protein tau (Homo sapiens) (UniProt P10636); assay: qHTS Assay for Tau Filament Binding; conditions: recombinant tau filaments, thioflavin S fluorescence, 15 h, filaments grown with octadecylsulfate alongside compound; series mostly up to 57.1 µM;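 note: actives lower thioflavin S fluorescence by blocking filaments or displacing dye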
Sequence of UniProt P10636 (P10636 whole entry, looked up): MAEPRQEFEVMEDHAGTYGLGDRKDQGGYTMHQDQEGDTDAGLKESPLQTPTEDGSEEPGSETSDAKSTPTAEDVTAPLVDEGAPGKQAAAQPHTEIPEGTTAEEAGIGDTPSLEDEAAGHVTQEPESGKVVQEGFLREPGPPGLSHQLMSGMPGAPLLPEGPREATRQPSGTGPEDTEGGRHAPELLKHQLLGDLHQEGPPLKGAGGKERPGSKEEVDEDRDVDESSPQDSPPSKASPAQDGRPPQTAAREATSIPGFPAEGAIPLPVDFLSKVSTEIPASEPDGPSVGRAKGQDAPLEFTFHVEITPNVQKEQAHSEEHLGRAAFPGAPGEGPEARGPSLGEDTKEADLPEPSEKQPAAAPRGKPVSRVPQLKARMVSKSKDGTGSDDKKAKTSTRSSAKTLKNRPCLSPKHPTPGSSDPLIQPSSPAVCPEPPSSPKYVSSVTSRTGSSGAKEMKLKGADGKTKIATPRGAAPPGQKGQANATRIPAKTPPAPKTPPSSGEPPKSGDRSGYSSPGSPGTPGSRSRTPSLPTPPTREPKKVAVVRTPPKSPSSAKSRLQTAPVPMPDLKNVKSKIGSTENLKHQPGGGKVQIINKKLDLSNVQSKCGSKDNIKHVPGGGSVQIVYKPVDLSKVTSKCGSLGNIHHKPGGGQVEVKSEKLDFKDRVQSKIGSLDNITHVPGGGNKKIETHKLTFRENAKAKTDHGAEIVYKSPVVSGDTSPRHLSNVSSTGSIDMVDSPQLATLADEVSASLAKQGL
In short: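 Assay mix: 1 uM His-tagged tau, 30 uM sodium octadecylsulfate, thioflavine S dye in HEPES/NaCl/DTT buffer. Compound is added prior to the inducer. Fluorescence after 15 h at 37 C.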
% is set by controls: 0 for no effect and ±100 for the full control effect; potency is the fitted concentration of half-maximal effect.

Potency, inactive:
COc1ccc(NC(=O)c2cnc(C)cn2)cc1-n1cnnn1
CCOc1ccc2nc(N3CCC(C(=O)Nc4nnc(CC)s4)CC3)sc2c1
O=C(Cc1ccccc1F)Nc1nc(-c2cccs2)cs1
CCCN1Cc2cccc(C(=O)Nc3ccc(CN4CCCC4)cc3)c2C1=O
O=C(Nc1ccc2oc(-c3cccnc3)nc2c1)c1cc2ccccc2o1
Cc1cc(C(=O)COC(=O)C2COc3ccccc3O2)c(C)n1CC1CCCO1 (stereo not drawn)
Cc1c(C(=O)OCc2ccccc2)nnn1-c1nonc1N
CN(C)C(=O)c1ccc(-c2ccc3ncnc(N4CCC(C(=O)O)CC4)c3c2)cc1
COc1ccc(OC)c(NC(=O)C2COc3ccccc3O2)c1 (stereo not drawn)
CCCC(=O)Nc1cccc(-c2nc3ccccc3o2)c1
COC(=O)C(NC(=O)c1ccccc1)c1ccccc1 (stereo not drawn)
O=C(COc1ccc(Cl)cc1Cl)NC1CCSC1=O (stereo not drawn)
COc1ccccc1-c1nccc(NCc2cccnc2)n1
CCN(CC)CCCn1c(-c2ccccc2)nc2c(N(CCOC)CCOC)nc(C)nc21
Cc1cc2ccccc2n1CCNC(=O)COc1ccccc1
COc1ccccc1-c1cncnc1-n1ccnc1
Cn1c(-c2ccc(C(C)(C)C)cc2)n[nH]c1=S
C[C@]1(OC(=O)/C=C\c2ccccc2)C[C@@H](O)[C@@]2(O)C=CO[C@@H](O[C@H]3O[C@@H](CO)[C@@H](O)[C@@H](O)[C@@H]3O)[C@H]21
COCCn1c(=O)cnc2cnc(Nc3cccc(OC)c3)nc21
CCC(=O)N1CCc2cc(Br)cc(S(=O)(=O)N3CCCCCC3)c21
O=C(CSc1nc2ccccc2n1CC(=O)N1CCCC1)NCc1ccc2c(c1)OCO2
COC(=O)c1ccc(N/C(C)=C/C(=O)c2ccc(C)o2)cc1
O=C(CSCc1nc2ccccc2[nH]1)N1CCN(c2cccc(Cl)c2)CC1
O=C(NC1CCCC1)C(c1cccs1)N(Cc1ccco1)C(=O)Cn1nnc(-c2cccs2)n1 (stereo not drawn)
COC(=O)N1CCC2(CCN(C(=O)NC(C)C)CC2)CC1
CC1(C)Cc2c(sc(NC(=O)c3ccco3)c2C#N)CO1
Cc1cc(N2CCN(C/C=C/c3ccccc3)CC2)n2ncnc2n1

Potency, inconclusive:
O=C1C(=O)c2ccccc2C(O)=C1C(C1=C(O)c2ccccc2C(=O)C1=O)c1ccc(Cl)cc1 3.16 µM [decreasing]
C=C(C)COc1ccc(-c2nc(N)ncc2Oc2ccc(OC)cc2)c(O)c1 3.16 µM [decreasing]
CC(C)SC(=N)N 31.6 µM [decreasing]
COCCOC(=O)C1=C(C)N=c2s/c(=C\c3cccs3)c(=O)n2C1c1cccs1 (stereo not drawn) 0.631 µM [decreasing]
CC/C(=C\C(=O)c1ccncc1)Nc1ccc(O)cc1 31.6 µM [decreasing]
COc1cc2ncnc(Nc3cccc(Br)c3)c2cc1OC 39.8 µM [decreasing]
COc1ccc2cc(C(c3nnnn3CCc3ccccc3)N3CCC(O)CC3)c(=O)[nH]c2c1 (stereo not drawn) 25.1 µM [decreasing]
Cc1ccc(S(=O)(=O)NCc2ccccc2)cc1 39.8 µM [decreasing]
CCC1(c2ccccc2)C(=O)NCNC1=O 39.8 µM [decreasing]
N=c1c(C(=O)NCc2ccc3c(c2)OCO3)cc2c(=O)n3ccccc3nc2n1Cc1cccnc1 0.0631 µM [decreasing]
Cc1ccc(Cn2nnc3c(=O)[nH]c(C(=O)NCc4ccco4)nc32)cc1 39.8 µM [decreasing]
CCN(CC)[C@@H](C)CN1c2ccccc2Sc2ccccc21 12.6 µM [decreasing]
Nc1sccc1C(=O)c1ccccc1 39.8 µM [decreasing]
CCOC(=O)C1CCCN(c2nc3ccccc3nc2C(C#N)C(=O)OCC)C1 (stereo not drawn) 6.31 µM [decreasing]
CC(C)c1cc(C(=O)Nc2cc(Cl)ccc2O)no1 39.8 µM [decreasing]
COC(=O)c1[nH]c2cc(C)ccc2c1NC(=O)CN1CCCc2ccccc21 3.98 µM [decreasing]
CC1CCN(CC[C@H]2CCCN2S(=O)(=O)c2cccc(O)c2)CC1 39.8 µM [decreasing]
Cc1cc(S(=O)(=O)N(Cc2ccccc2)Cc2ccc(N(C)C)cc2)ccc1-n1cnnn1 25.1 µM [decreasing]
C[C@@](Cc1ccc(O)c(O)c1)(NN)C(=O)O 39.8 µM [decreasing]
O=C1SC(SCc2ccccc2)=N/C1=C\c1ccco1 25.1 µM [decreasing]
CC(=O)C1C(=O)C=C(c2ccco2)CC1c1ccccc1 (stereo not drawn) 31.6 µM [decreasing]
NC(=O)c1cnn2c(C(F)(F)F)cc(-c3ccc(F)cc3)nc12 15.8 µM [decreasing]
CCCC(=O)n1nc(-c2ccco2)nc1SCc1ccccc1 39.8 µM [decreasing]
Cc1cc(C)cc(OCCCCCNCCO)c1 15.8 µM [decreasing]
C=CCc1cccc2cc(C(=O)N3CCN(C(=O)OCC)CC3)c(=O)oc12 31.6 µM [decreasing]
COc1ccc(NC(=O)C2=C(C)C(=O)OC23CCC(C)CC3)c(OC)c1 (stereo not drawn) 39.8 µM [decreasing]
N#C/C(=C\c1ccc(O)c(O)c1)C(=O)NCCCCc1ccccc1 39.8 µM [decreasing]
Clc1cccc(Cl)c1NC1=NCCN1 39.8 µM [decreasing]
CC1(C)Cc2c(c(-c3ccco3)nc3n[nH]c(N)c23)CO1 25.1 µM [decreasing]
c1cncc(-c2nc(-c3ccco3)cs2)c1 15.8 µM [decreasing]
COc1cc(/C=C\c2ccc(OC)cc2OC)cc(OC)c1 39.8 µM [decreasing]
O=C(CCOc1ccccc1)OCC(=O)c1cc2ccccc2o1 15.8 µM [decreasing]
C[C@@H]1COc2c(N3CCN(C)CC3)c(F)cc3c(=O)c(C(=O)O)cn1c23 20 µM [decreasing]
COc1ccc(N2C(=O)CC(Nc3ccc(N4CCOCC4)cc3)C2=O)c(OC)c1 (stereo not drawn) 25.1 µM [decreasing]
Cc1noc(NS(=O)(=O)c2cccc3c(N(C)C)cccc23)c1C 39.8 µM [decreasing]
CS(=O)(=O)Nc1c(O)ccc2c1CCC[C@H]2C1=NCCN1 39.8 µM [decreasing]
O=C(Nc1ccc2c(c1)OCO2)c1ccncc1 25.1 µM [decreasing]
Cc1cc(C)nc(SCc2nnc(SCC(=O)N3CCCc4ccccc43)n2C)n1 31.6 µM [decreasing]
O=c1[nH]c(=O)n(Cc2ccccc2)c2nc(-c3ccco3)cc(C(F)(F)F)c12 3.98 µM [decreasing]

Potency, active:
Cc1cc2cc(CNC(=O)c3cc4ccccc4o3)ccc2n1C 15.8 µM
O=c1c(-c2cc(F)cc(F)c2)nc2cncnc2n1Cc1ccccc1 31.6 µM
COc1ccc(-c2cc(=O)c3ccccc3s2)cc1 25.1 µM
CN1C=CC=C/C1=C(\C#N)c1nc2ccccc2[nH]1 31.6 µM
CC(C)(C)C1CCC2(CC1)C(C#N)=C(SCC(=O)NC1CCCCC1)NC(=O)C2C#N (stereo not drawn) 12.6 µM
COc1cccc(Cn2c(=O)c(-c3ccc(Cl)cc3)nc3cncnc32)c1 25.1 µM
COc1ccc(N2CCN(C(=O)C(Cc3ccccc3)n3cccc3)CC2)cc1 (stereo not drawn) 12.6 µM
COc1ccccc1-c1nc(NC2CC2)c2ccccc2n1 15.8 µM
N#CC(=C1CCCC1)c1nc(-c2ccccc2O)cs1 12.6 µM
Nc1nc(C(=O)O)c(N=Nc2ccccc2)c(=O)[nH]1 5.01 µM
CCOC(=O)c1cc(-c2ccccc2)sc1N 25.1 µM
Nc1nc2c(s1)CCc1c-2cnn1-c1ccccc1 20 µM
CCOc1ccccc1NC(=O)CC1Nc2cc(C)c(C)cc2NC1=O (stereo not drawn) 3.98 µM
FC(F)(F)c1cc(-c2ccco2)nc(NCc2cccnc2)n1 20 µM
COc1ccc2nc(NC(=O)C3CCN(S(=O)(=O)c4cccc5nsnc45)CC3)sc2c1 12.6 µM
Cc1c(CN(C)C)c2c(n1C)C(=O)c1ccc(Br)cc1-2 2.51 µM
CCOC(=O)c1cc(-c2ccco2)nc2c1c(C)nn2-c1ccccc1 10 µM
CC1N(C)c2cc(NC(=O)c3ccco3)ccc2C1(C)C (stereo not drawn) 20 µM

Activity change, negative = inhibition, inactive:
C[C@H](CN(C)C)C(=O)c1ccccc1C(=O)O -4.4% [at 11.4 µM]
CC1(C)[C@@H]2CC[C@]1(CC(=O)O)[C@H](Cl)C2 3% [at 11.4 µM]
O=C(O)CNC(=O)c1ccccc1O 3.8% [at 11.4 µM]
O=C(O)C(F)(F)C(F)(F)C(F)(F)C(F)(F)C(=O)O -12% [at 11.4 µM]
